The other results are listed elsewhere or left out. Each Rep nickase domain was tested in vitro on the same pool of single strands for 1 h at 37 °C with 3 µM enzyme; only the middle of the 90-letter strands is printed. Numbers give uncut DNA relative to the enzyme-free pool, as log2; more negative means more cut, near 0 not cut, and no call is made. Because reads are shares of a total, they shift together; values above 0 arise when much of the pool is cut.
Key:
Assay in all cases: uncleaved DNA left, log2 of reads against the no-enzyme library (log2 ratio); higher = less cleavage (more negative = more Rep cleavage of the k-mer); sequences stand for … in CTCGTCCG…ACCGGAGA
[1] = tested on: T1, Rep nickase domain of Muscovy duck circovirus
T1 sequence (residues 1-111 of Rep, tag left off): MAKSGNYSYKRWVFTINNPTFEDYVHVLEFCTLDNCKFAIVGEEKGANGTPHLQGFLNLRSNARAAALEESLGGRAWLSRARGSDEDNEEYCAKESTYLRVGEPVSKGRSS
Protocol: (§1)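 A pool of 90-nt single-stranded DNAs with seven random bases just before the constant AC of the nick site (name = the seven bases) was cut by 3 µM recombinant His6-SUMO-tagged Rep nickase domain (300 nM DNA, 50 mM HEPES pH 8.0, 50 mM NaCl, 1 mM MnCl2, 1 h, 37 °C, three replicates). Uncut DNA was amplified and sequenced.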

[2] = tested on: T2, Rep nickase domain of banana bunchy top virus
T2 sequence (residues 1-94 of Rep, tag left off): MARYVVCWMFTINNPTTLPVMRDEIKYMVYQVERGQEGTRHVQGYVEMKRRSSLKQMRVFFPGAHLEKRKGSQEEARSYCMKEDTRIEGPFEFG
Protocol: as §1

[3] = tested on: T3, Rep nickase domain of cabbage leaf curl virus
T3 sequence (residues 1-116 of Rep, tag left off): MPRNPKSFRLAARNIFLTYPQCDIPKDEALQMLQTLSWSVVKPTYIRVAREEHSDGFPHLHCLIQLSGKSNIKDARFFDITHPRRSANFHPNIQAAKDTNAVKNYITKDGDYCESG
Protocol: as §1

[4] = tested on: T4, Rep nickase domain of chickpea chlorotic dwarf virus
T4 sequence (residues 1-124 of Rep, tag left off): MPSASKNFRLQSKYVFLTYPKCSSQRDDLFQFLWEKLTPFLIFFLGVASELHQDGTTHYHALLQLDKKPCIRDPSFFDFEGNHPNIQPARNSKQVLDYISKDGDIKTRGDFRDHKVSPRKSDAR
Protocol: as §1

[5] = tested on: T5, Rep nickase domain of faba bean necrotic yellows virus
T5 sequence (residues 1-98 of Rep, tag left off): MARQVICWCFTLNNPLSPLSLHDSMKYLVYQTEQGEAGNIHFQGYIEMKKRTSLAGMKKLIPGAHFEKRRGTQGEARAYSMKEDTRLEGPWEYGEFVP
Protocol: as §1

[6] = tested on: T6, Rep nickase domain of maize striate mosaic virus
T6 sequence (residues 1-117 of Rep, tag left off): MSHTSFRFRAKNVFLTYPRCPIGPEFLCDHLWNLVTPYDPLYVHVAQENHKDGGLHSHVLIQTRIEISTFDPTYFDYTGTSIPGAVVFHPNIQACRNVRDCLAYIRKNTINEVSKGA
Protocol: as §1

[7] = tested on: T7, Rep nickase domain of porcine circovirus 2
T7 sequence (residues 2-116 of Rep, tag left off): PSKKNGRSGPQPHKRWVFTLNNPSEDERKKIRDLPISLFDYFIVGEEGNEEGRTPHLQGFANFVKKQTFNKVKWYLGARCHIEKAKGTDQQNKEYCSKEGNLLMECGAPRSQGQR
Protocol: as §1

[8] = tested on: T8, Rep nickase domain of tomato golden mosaic virus
T8 sequence (residues 1-124 of Rep, tag left off): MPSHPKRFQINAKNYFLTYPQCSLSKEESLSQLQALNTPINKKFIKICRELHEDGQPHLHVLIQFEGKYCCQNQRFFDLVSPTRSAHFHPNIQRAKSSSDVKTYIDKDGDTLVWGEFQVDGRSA
Protocol: as §1

[9] = tested on: T9, Rep nickase domain of tomato yellow leaf curl virus
T9 sequence (residues 1-136 of Rep, tag left off): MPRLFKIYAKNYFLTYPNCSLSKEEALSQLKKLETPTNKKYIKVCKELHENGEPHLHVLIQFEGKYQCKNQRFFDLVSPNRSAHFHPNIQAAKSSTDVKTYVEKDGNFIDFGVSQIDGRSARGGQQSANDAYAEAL
Protocol: as §1

[10] = tested on: T10, Rep nickase domain of wheat dwarf virus
T10 sequence (residues 1-137 of Rep, tag left off): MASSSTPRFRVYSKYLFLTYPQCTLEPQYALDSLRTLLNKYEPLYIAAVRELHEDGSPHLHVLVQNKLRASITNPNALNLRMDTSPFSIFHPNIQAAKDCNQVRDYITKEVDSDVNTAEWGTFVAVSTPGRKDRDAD
Protocol: as §1

Sequence	uncleaved DNA left (log2) [1]	uncleaved DNA left (log2) [2]	uncleaved DNA left (log2) [3]	uncleaved DNA left (log2) [4]	uncleaved DNA left (log2) [5]	uncleaved DNA left (log2) [6]	uncleaved DNA left (log2) [7]	uncleaved DNA left (log2) [8]	uncleaved DNA left (log2) [9]	uncleaved DNA left (log2) [10]
GATATAT	0.135	-0.0081	0.418	0.583	0.0842	1.32	-0.157	0.156	0.158	0.167
TGTAGGA	0.0581	0.023	0.167	0.368	0.0884	-0.205	0.113	0.171	-0.0502	0.0278
GCACTTA	-0.226	-0.14	-0.0797	-0.384	-0.176	0.0316	-0.19	-0.0921	-0.112	-0.247
CGCGTGG	0.126	0.057	0.027	0.519	0.0347	0.444	0.112	0.000313	0.0481	0.0452
CCACTAA	0.146	0.0451	-0.25	-0.783	-0.0262	-0.659	-0.0809	-0.113	-0.234	-0.0109
AACCGCC	-0.0221	-0.0292	-0.2	-0.753	-0.0892	-0.821	-0.139	-0.0578	-0.11	0.0436
TATTGTG	0.0274	-0.0763	-0.492	0.9	0.0802	-0.227	0.181	0.0154	0.143	0.0118
CAGGCGT	0.187	-0.0352	-0.793	-0.569	0.0753	-0.71	0.095	-0.11	0.126	-0.0837
CCATCGA	-0.0416	-0.0331	-0.518	-0.729	0.0203	-1.02	0.153	0.0143	0.0407	0.0272
ATGGACG	0.107	-0.0851	-0.717	-0.686	0.0236	-1.03	0.216	0.0207	0.137	0.0212
TGTACGC	0.0329	0.0957	0.189	-0.0344	0.0567	-0.156	0.0664	0.0293	0.0609	0.0468
GCAGAAG	-0.0578	0.0505	-0.737	-0.475	-0.0552	-0.942	0.153	-0.048	0.048	-0.0254
CTGATTA	0.185	0.0667	0.0144	-0.802	0.176	-0.307	0.0639	0.0469	0.119	0.128
GACATAG	-0.0245	-0.031	-0.601	-0.324	-0.0329	-1.03	0.106	-0.0515	0.0254	-0.0697
GAGGATA	0.0658	0.198	0.68	1.67	0.0388	2	0.18	0.139	0.0774	0.297
AGACCTA	0.0925	0.057	0.457	0.824	0.0335	1.63	-0.0234	0.00222	0.097	0.0214
CTCGCGG	-0.112	-0.0928	0.429	1.43	-0.229	1.94	0.057	0.0771	-0.192	0.0142
TCCGGAT	0.0186	-0.0124	0.353	1.42	-0.0237	1.77	0.0646	0.086	-0.158	-0.0379
CGTCCAT	0.0306	-0.12	0.0906	-0.033	-0.0721	-0.133	-0.192	-0.193	0.0608	0.119
TGGAAGT	0.0975	0.0688	0.429	0.855	-0.0579	0.629	0.0987	-0.039	-0.0751	0.196

Sequence	uncleaved DNA left (log2) [1]	uncleaved DNA left (log2) [2]	uncleaved DNA left (log2) [3]	uncleaved DNA left (log2) [4]	uncleaved DNA left (log2) [5]	uncleaved DNA left (log2) [6]	uncleaved DNA left (log2) [7]	uncleaved DNA left (log2) [8]	uncleaved DNA left (log2) [9]	uncleaved DNA left (log2) [10]
TCTGCAG	-0.00516	-0.132	-0.793	-0.691	-0.236	-1.24	0.16	-0.21	-0.22	-0.212
TGTTATG	0.0202	0.0201	-0.237	-0.523	0.00362	-0.953	0.117	-0.0229	0.0277	-0.0437
ACGGTAT	0.0274	-0.0964	0.0481	0.212	-0.0774	0.453	0.00517	0.0461	-0.098	-0.0322
GATGCAA	0.0771	0.0597	0.145	0.625	0.0389	0.602	0.0272	0.063	0.0164	0.105
AACACTT	-0.281	-0.637	-0.514	-2.9	-0.0525	-0.352	-2.85	-0.273	-0.23	-0.23
ATACCTG	-0.0997	-0.051	0.122	0.765	-0.00518	1.06	0.0734	-0.0342	-0.139	-0.0035
TGCCGCT	-0.0546	-0.151	-0.179	-0.863	0.0149	-0.868	-0.0819	-0.263	-0.144	-0.0883
TTTACCT	-0.102	0.0966	-0.00325	-2.36	0.0287	0.118	-1	-0.0683	0.0885	-0.000653
AAATGTC	0.0361	-0.102	-3.18	-2.56	0.0436	-2	-0.259	-0.537	-0.169	-0.653
CCTAGAC	-0.0565	-0.243	0.0646	0.059	-0.0203	-0.561	0.112	-0.125	-0.192	-0.104
GATTCAA	-0.0964	0.131	0.138	0.729	-0.103	1.04	-0.0471	0.00612	0.0949	0.072
ACGGGTA	-0.0282	0.0691	0.112	-0.209	0.0989	0.288	-0.033	0.102	-0.0341	0.037
GAAATCG	-0.0709	-0.0764	-0.972	-0.236	-0.136	-0.996	0.0796	-0.109	-0.0652	-0.136
ACTTGTT	-3.1	-1.34	-0.744	-2.52	0.0488	-0.874	-3.64	-0.114	0.0179	-0.48
CTGAGCC	0.0792	0.0871	0.0165	0.148	0.0602	-0.259	0.0777	0.0676	-0.0147	0.0916
CGCTAAT	-1.73	-0.0682	-0.0236	-0.596	0.151	-0.282	-2.56	0.0474	0.149	-0.0351
CCATCAC	0.103	0.0964	-0.0625	-0.461	0.132	-0.886	0.203	0.0393	0.0597	-0.0335
ATTTTGG	0.0132	-0.025	-0.168	0.0078	-0.0232	-0.926	0.123	0.0156	0.0227	-0.0417
TACCCAC	-0.168	-0.258	-0.132	-1.46	-0.14	-0.743	-1.26	-0.138	-0.057	-0.0602
CGGGCTC	0.202	0.00482	0.656	1.12	-0.0479	1.61	0.144	-0.0114	-0.00293	0.00864

Sequence	uncleaved DNA left (log2) [1]	uncleaved DNA left (log2) [2]	uncleaved DNA left (log2) [3]	uncleaved DNA left (log2) [4]	uncleaved DNA left (log2) [5]	uncleaved DNA left (log2) [6]	uncleaved DNA left (log2) [7]	uncleaved DNA left (log2) [8]	uncleaved DNA left (log2) [9]	uncleaved DNA left (log2) [10]
AGTTCTC	-0.17	-0.11	-0.0237	0.128	-0.0888	-0.168	-0.749	-0.0604	-0.109	-0.0673
ACCACAC	-0.109	0.00409	-0.0994	-0.394	-0.0459	-0.951	0.0149	-0.035	-0.0462	-0.164
TTAGGCG	-0.0396	-0.0464	-0.79	0.268	0.0768	-0.877	0.224	0.0408	-0.0123	-0.105
ATAATAG	0.0499	-0.0171	-0.8	-0.446	0.0669	-1.23	0.199	0.0836	0.0164	0.0155
GTTATGT	0.0185	0.115	0.342	0.782	-0.103	1.51	0.121	0.0769	0.0695	-0.00197
CTGCGGC	-0.199	-0.166	-0.532	-0.686	-0.00458	-0.975	0.0352	-0.257	-0.162	-0.244
TGACTGT	-0.00656	-0.045	0.0595	0.606	0.0402	1.67	0.0101	-0.0786	0.00915	0.0654
ATTGTCG	0.0515	0.0234	-0.527	1.03	0.0476	-0.105	0.0454	-0.0135	0.0587	-0.151
CCATCCG	-0.155	-0.0205	-0.794	0.304	-0.0952	-0.854	0.0441	-0.119	-0.0519	-0.102
ACGGCAC	-0.0922	0.00748	-0.196	-0.167	0.016	-0.424	0.0434	0.0249	-0.101	-0.000519
CAGCCTA	-0.0337	0.0167	-0.219	-2.39	0.00263	-0.375	-0.706	0.0215	-0.0322	0.0264
TGACTCC	0.0265	-0.0748	0.3	0.454	0.01	0.981	-0.0321	-0.049	0.0442	0.0284
TATCCTG	0.00311	0.0135	0.117	0.774	-0.0166	0.9	0.019	0.0368	0.000919	-0.0117
CCGTTCG	0.0624	-0.255	-0.628	0.281	-0.167	-0.504	-0.0718	-0.12	-0.0531	-0.3
ATCGAGA	0.113	0.115	0.834	1.46	0.178	0.948	0.0901	0.144	0.0961	0.171
CCTTTTG	0.0465	0.0476	-0.723	-0.433	0.0838	-1.21	0.156	-0.0951	-0.0189	0.0195
ACCCAAT	0.02	0.0397	-0.0505	-0.372	0.119	-0.576	-0.00123	0.0323	-0.0348	0.0988
CTGCGTG	0.187	0.104	-0.571	-0.502	0.131	-1.14	0.385	0.0714	0.194	0.153
TCTAACA	0.115	0.0667	-0.279	-2.26	0.142	-0.314	-0.0326	0.0781	0.0751	0.0738
ATTTTTA	-0.321	-0.277	-0.222	-2.26	-0.0603	-0.684	-0.62	-0.162	-0.145	-0.151

Reference: the supplement of paper PMC7826260
